# The other results are listed elsewhere or left out. The full chains were built here from the parent and the listed change. Values near 0.05 are background.
# B1: TEV protease; numbered along this chain (parent)
# chain: MGESLFKGPRDYNPISSSICHLTNESDGHTTSLYGIGFGPFIITNKHLFRRNNGTLVVQSLHGVFKVKDTTTLQQHLVDGRDMIIIRMPKDFPPFPQKLKFREPQREERICLVTTNFQTKSMSSMVSDTSCTFPSGDGIFWKHWIQTKDGQCGSPLVSTRDGFIVGIHSASNFTNTNNYFTSVPKNFMELLTNQEAQQWVSGWRLNADSVLWGGHKVFMVKPEEPFQPVKEATQL
# Variants of: B1
# Assay: raw area under fraction-flipped curve 0-4 h after induction (AUC4h, not background-subtracted), DNA-recorder readout of cleavage of the substrate (dimensionless); higher = more cleavage of the substrate by the protease variant
# Settings: temperature: 34 °C; time window: 0-4 h after rhamnose induction
# Method: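 In vivo DNA recorder in E. coli TOP10(DE3) ΔrhaA at 34 °C. Each TEVp single-site mutant (parent TEVp 0) is paired with a single-site variant of the 7-mer TEVs (canonical ENLYFQ|S). The substrate sits between flexible linkers in a Bxb1-sfGFP-TEVs-SsrA fusion, so cleavage stabilises Bxb1 and speeds flipping of a recombination array, read by NGS. The value is the raw area under the fraction-flipped curve over 0-4 h after rhamnose induction (AUC4h), with ≥20 reads per time point. It is not background-subtracted; inactive controls average about 0.047.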
# 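Also: Bxb1 expression induced with 0.2% (w/v) L-rhamnose at OD600 near 0.5, cultures sampled hourly, flipped fraction per protease–substrate barcode pair counted by paired-end Illumina sequencing.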
Variant,area with substrate ENLYFQA,area with substrate ENLYFQD,area with substrate ENLYFQI,area with substrate ENLYFQK,area with substrate ENLYFQL,area with substrate ENLYFQM,area with substrate ENLYFQN,area with substrate ENLYFQP,area with substrate ENLYFQR,area with substrate ENLYFQS,area with substrate ENLYFQT,area with substrate ENLYFQV,area with substrate ENLYFQW,area with substrate ENLYFQY,area with substrate ENLYFQC,area with substrate ENLYFQG,area with substrate ENLYFQH,area with substrate ENLYFQF,area with substrate ENLYFQQ
MGESLFKGPRDYNPISSSICHLTNESDGHTTSLYGIGFGPFIITNKHLFRRNNGGLVVQSLHGVFKVKDTTTLQQHLVDGRDMIIIRMPKDFPPFPQKLKFREPQREERICLVTTNFQTKSMSSMVSDTSCTFPSGDGIFWKHWIQTKDGQCGSPLVSTRDGFIVGIHSASNFTNTNNYFTSVPKNFMELLTNQEAQQWVSGWRLNADSVLWGGHKVFMVKPEEPFQPVKEATQL [T55G],0.0815,0.062,0.0558,0.0814,0.0488,0.0748,0.0603,0.067,0.0605,0.0912,0.0469,0.0547,0.0528,0.0655,–,–,–,–,–
MGESLFKGPRDYNPISSSICHLTNESDGHTTSLYGIGFGPFIITNKHLPRRNNGTLVVQSLHGVFKVKDTTTLQQHLVDGRDMIIIRMPKDFPPFPQKLKFREPQREERICLVTTNFQTKSMSSMVSDTSCTFPSGDGIFWKHWIQTKDGQCGSPLVSTRDGFIVGIHSASNFTNTNNYFTSVPKNFMELLTNQEAQQWVSGWRLNADSVLWGGHKVFMVKPEEPFQPVKEATQL [F49P],0.0627,0.0662,0.0563,0.0503,0.0584,0.0591,0.0622,0.0628,0.058,0.0584,0.0441,0.0378,0.0514,0.0542,0.0743,0.0596,0.0576,–,–
MGESLFKGPRDYNPISSSICHLTNESDGHTTSLYGIGFGPFIITNKHLRRRNNGTLVVQSLHGVFKVKDTTTLQQHLVDGRDMIIIRMPKDFPPFPQKLKFREPQREERICLVTTNFQTKSMSSMVSDTSCTFPSGDGIFWKHWIQTKDGQCGSPLVSTRDGFIVGIHSASNFTNTNNYFTSVPKNFMELLTNQEAQQWVSGWRLNADSVLWGGHKVFMVKPEEPFQPVKEATQL [F49R],0.0374,–,0.0581,0.0546,0.0477,0.0606,0.038,–,0.0556,0.0558,0.0454,–,0.0588,–,0.0567,0.0599,0.0881,0.0708,–
MGESLFKGPRDYNPISSSICHLTNESDGHTTSLYGIGFGPFIITNKHLVRRNNGTLVVQSLHGVFKVKDTTTLQQHLVDGRDMIIIRMPKDFPPFPQKLKFREPQREERICLVTTNFQTKSMSSMVSDTSCTFPSGDGIFWKHWIQTKDGQCGSPLVSTRDGFIVGIHSASNFTNTNNYFTSVPKNFMELLTNQEAQQWVSGWRLNADSVLWGGHKVFMVKPEEPFQPVKEATQL [F49V],0.0705,0.0686,–,0.0552,0.0571,–,0.0637,–,0.0541,0.0632,–,0.0639,–,0.0609,0.0719,–,0.0593,–,–
MGESLFKGPRDYNPISSSICHLTNESDGHTTSLYGIGFGPFIITNKHLFRRNNGTDVVQSLHGVFKVKDTTTLQQHLVDGRDMIIIRMPKDFPPFPQKLKFREPQREERICLVTTNFQTKSMSSMVSDTSCTFPSGDGIFWKHWIQTKDGQCGSPLVSTRDGFIVGIHSASNFTNTNNYFTSVPKNFMELLTNQEAQQWVSGWRLNADSVLWGGHKVFMVKPEEPFQPVKEATQL [L56D],0.046,0.0506,0.0527,0.0472,0.0369,0.0459,0.0442,0.026,0.0446,0.0433,0.052,0.0454,0.0421,0.0459,0.0458,0.0485,0.0346,0.0469,0.0369
MGESLFKGPRDYNPISSSICHLTNESDGHTTSLYGIGFGPFIITNKHLFRANNGTLVVQSLHGVFKVKDTTTLQQHLVDGRDMIIIRMPKDFPPFPQKLKFREPQREERICLVTTNFQTKSMSSMVSDTSCTFPSGDGIFWKHWIQTKDGQCGSPLVSTRDGFIVGIHSASNFTNTNNYFTSVPKNFMELLTNQEAQQWVSGWRLNADSVLWGGHKVFMVKPEEPFQPVKEATQL [R51A],0.106,–,–,0.0742,0.0589,0.1,–,0.0647,–,0.103,–,–,–,0.0762,0.106,0.0908,–,–,–
MGESLFKGPRDYNPISSSICHLTNESDGHTTSLYGIGFGPFIITNKHLFRRNNRTLVVQSLHGVFKVKDTTTLQQHLVDGRDMIIIRMPKDFPPFPQKLKFREPQREERICLVTTNFQTKSMSSMVSDTSCTFPSGDGIFWKHWIQTKDGQCGSPLVSTRDGFIVGIHSASNFTNTNNYFTSVPKNFMELLTNQEAQQWVSGWRLNADSVLWGGHKVFMVKPEEPFQPVKEATQL [G54R],0.0516,0.0523,0.0661,0.0572,0.0589,0.0553,0.0571,0.0689,0.0524,0.0663,0.064,0.0616,0.0546,0.0634,0.0642,0.0771,0.0559,–,–
MGESLFKGPRDYNPISSSICHLTNESDGHTTSLYGIGFGPFIITNKHLFRRNNLTLVVQSLHGVFKVKDTTTLQQHLVDGRDMIIIRMPKDFPPFPQKLKFREPQREERICLVTTNFQTKSMSSMVSDTSCTFPSGDGIFWKHWIQTKDGQCGSPLVSTRDGFIVGIHSASNFTNTNNYFTSVPKNFMELLTNQEAQQWVSGWRLNADSVLWGGHKVFMVKPEEPFQPVKEATQL [G54L],0.0688,–,0.058,0.0454,0.0617,0.0728,0.065,0.0249,0.0517,0.0672,0.0201,0.0615,0.0645,0.0372,0.0987,–,–,0.0519,0.0628
MGESLFKGPRDYNPISSSICHLTNESDGHTTSLYGIGFGPFIITNKHLFRRNNHTLVVQSLHGVFKVKDTTTLQQHLVDGRDMIIIRMPKDFPPFPQKLKFREPQREERICLVTTNFQTKSMSSMVSDTSCTFPSGDGIFWKHWIQTKDGQCGSPLVSTRDGFIVGIHSASNFTNTNNYFTSVPKNFMELLTNQEAQQWVSGWRLNADSVLWGGHKVFMVKPEEPFQPVKEATQL [G54H],0.0727,0.0683,0.0614,–,0.0588,0.0603,0.0626,–,0.0568,0.0698,0.0687,0.0431,0.0534,0.0847,0.069,0.0654,0.06,0.0616,–

# From the supplement of paper PMC12217912
